In the supplement of paper PMC10126150:
Values marked as one replicate rest on one cluster of the flow cell; about a third of the high ones do not repeat.

Tested on: ATP
Test: switch fluorescence ratio, 500 uM ATP over buffer (Cy3 cluster intensity, sum of 5 cycles each) (fold (ratio)); higher = stronger signal-on switching upon ATP binding; sequences stand for … in TCGTCGGCAGCGTCAGATGTGTATAAGAGACAGTTTTTTTTTTTTTTTTTTTTTTTTT…TC
Conditions: aptamer strand: ATP DNA aptamer (quencher-CACCTGGGGGAGTATTGCGGAGGAAGG + anchor), 100 nM annealed; ATP concentration: 500 uM; one replicate
In short: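 The fluorescence ratio divides summed target-cycle Cy3 intensity by summed buffer-cycle Cy3 intensity for each cluster and is averaged per switch-domain sequence. Cy3-labelled switching-strand clusters on a modified Illumina MiSeq flow-cell were annealed to 100 nM quencher-labelled ATP aptamer, then imaged in selection buffer and again after 15 min with 500 uM ATP at 22 °C. Five such cycles were run, with NaOH stripping and re-annealing between them, and clusters outside 100-1000 RFU were excluded.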
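Further: ATP exposure 15 min at 22 °C before imaging.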

Row | Sequence | switch fluorescence ratio
1 | TATGCGCACT | 1.04
2 | TCAGTTACCT | 1.19
3 | CGTGACAGTT | 0.997
4 | TTAAGAAGGA | 1
5 | ACCAAGGGG | 0.997
6 | GGTCCACGGA | 1.01
7 | TAGGGGCCCT | 1.04
8 | AAGTGCATC | 1.01
9 | CCGTTGCAGT | 2.13
10 | CATGTCTTCT | 0.977
11 | GCAATAGCCT | 1.32
12 | GATCCCCGAT | 1
13 | AGTAGACATT | 0.992
14 | ATAAGATCAC | 1.06
15 | ATCTGCCCCG | 1.02
16 | TTCAGTGTCA | 0.936
17 | ACAACACTGA | 1.31
18 | CAAGTGGCAG | 0.971
19 | GCCAGGTTTT | 1.06
20 | TCAGGCGCGC | 1
21 | TAGTCCACGT | 1.05
22 | CTTACTTATT | 0.991
23 | GGTGAACAGA | 0.994
24 | TTAAATTTC | 0.936
25 | CCCGTTTTTA | 1.01
26 | GTATGTCCTC | 1.02

Row | Sequence | switch fluorescence ratio
27 | CCGAGCCGGT | 1.04
28 | GCAATATAGT | 1.13
29 | TGTTAAGCTT | 1.05
30 | ACTCTAGCTG | 1.2
31 | TAGGTTCTTG | 0.957
32 | TTGATGCTTA | 1.05
33 | AATTGGAGT | 1.02
34 | CTTATGAGGC | 1.03
35 | GTTTGACCTG | 1
36 | TCTTTTCGAT | 1.02
37 | CCGATGTTCT | 1.21
38 | ATTAGGAGTA | 0.992
39 | AGCCGGCGA | 1.06
40 | GGGGAAGCTG | 1.11
41 | GATTTCTGAA | 1
42 | ATGCGCTGGA | 1.01
43 | TTAGATACGT | 0.979
44 | ATTCATTAGT | 0.997
45 | AGAACTATAG | 1
46 | ATTCTCATCA | 1
47 | GTTATCGACC | 1.02
48 | GTTATACTAG | 1.02
49 | AATTAAGTGC | 1.01
50 | TGGGTGCCGC | 0.884
51 | CTTTAATACC | 1.04
52 | CGGGATTTCG | 0.984

Row | Sequence | switch fluorescence ratio
53 | ATGGGGTAAG | 1.05
54 | GAGAATGCGG | 1.06
55 | GGTGAAGCGT | 0.961
56 | AAACGCTTT | 1.02
57 | AGAGAGGGTC | 0.985
58 | GGTCGGCAGG | 0.992
59 | TTCATGAGAA | 1
60 | TAACTGTGGC | 1
61 | TGGCATTCGG | 1.01
62 | GCCGGCTGGG | 1.01
63 | GTGTTAAGCC | 1.01
64 | ATGTAGACCC | 0.961
65 | TAGGCAGTTT | 0.995
66 | GGAAACGCTC | 1.03
67 | ACACTTTATT | 1.05
68 | AGTATTGCTT | 0.953
69 | TCTGTTTGGA | 0.964
70 | CCGTACTTCC | 2.11
71 | TTCGCTGTAA | 1.26
72 | AAGGGGCCCA | 1.05
73 | AGTGCTGGCC | 0.966
74 | CTGCCATAGA | 1.04
75 | CAGCTATGTC | 1.09
76 | TTGTCTGACT | 1.04
